Data set [1] in a line: Toxicity, mock-infected MT4 CMV-EGFP cells. It counts as cell-based. The following applies: human. From the text:
Assay 1 &2: Antiviral Activity/Toxicity
Analogously, MT4 cells are engineered with GFP and the constitutional cytomegalovirus (CMV) promotor. […] Cytotoxic investigational compounds reduce GFP levels of mock-infected MT4 CMV-EGFP cells.
The ratio of CC50 to EC50 is defined as the selectivity index (SI) and is an indication of the selectivity of the anti-HIV activity of the inhibitor. The ultimate monitoring of HIV-1 infection and cytotoxicity is done using a scanning microscope. Image analysis allows very sensitive detection of viral infection. Measurements are done before cell necrosis, which usually takes place about five days after infection, in particular measurements are performed three days after infection.
A pEC50 value corresponds to −log10(EC50). A pCC50 value corresponds to −log10(CC50).

The nature of data set [2]: Metabolic stability of test compounds (HLM15'). It counts as in vitro ADME. Particulars: human, pH 7.4. From the text:
Human liver tissue is rinsed in ice-cold 0.1 M Tris-HCl (pH 7.4) buffer to wash excess blood. Tissue is then blotted dry, weighed and chopped coarsely using surgical scissors. The tissue pieces are homogenized in 3 volumes of ice-cold 0.1 M phosphate buffer (pH 7.4) using either a Potter-S (Braun, Italy) equipped with a Teflon pestle or a Sorvall Omni-Mix homogenizer, for 7×10 sec. In both cases, the vessel is kept in/on ice during the homogenization process. Tissue homogenates are centrifuged at 9000×g for 20 min at 4° C. using a Sorvall centrifuge or Beckman Ultracentrifuge. The resulting supernatant can be stored at −80° C. and is designated ‘S9’. The S9 fraction is centrifuged at 100,000×g for 60 min at 4° C. using a Beckman ultracentrifuge. The resulting supernatant is carefully aspirated, aliquoted and designated ‘cytosol’. The pellet is re-suspended in 0.1 M phosphate buffer (pH 7.4) in a final volume of 1 ml per 0.5 g original tissue weight and designated ‘microsomes’. All sub-cellular fractions are aliquoted, immediately frozen in liquid nitrogen and stored at −80° C. until use.
Heat-inactivated (10 min at 95° C.) ‘S9’ or microsomes were used for blank experiments. […] The reaction was incubated for 0 or 15 min. Next, the reaction was stopped by addition of 2 volumes of DMSO (or acetonitrile). Samples were centrifuged (10 min, 900×g) and analyzed by LC-MS.

As a reminder, the CC50 is the concentration that lowers cell viability or growth by half. A higher CC50 goes with better tolerance by the cells.

In turn, `C#CCNc1nc2ccc(C(=O)N(CC#C)C[C@@H](O)[C@H](Cc3ccccc3)NC(=O)OCc3cncs3)cc2o1` [Compound C42, Thiazol-5-ylmethyl (2S,3R)-4-(2-(ethynylamino)-N-(prop-2-ynyl)benzo[d]-oxazole-6-carboxamido)-3-hydroxy-1-phenylbutan-2-ylcarbamate] returned a CC50 in data set [1] of 93.3 µM. This molecule also registered a recovery in data set [2] of 54%.
Taken in the same sequence, the figures for `CNc1nc2ccc(C(=O)N(CC(C)C)C[C@@H](O)[C@H](Cc3ccccc3)NC(=O)OCc3cncs3)cc2o1` [Compound C26, Thiazol-5-ylmethyl (2S,3R)-3-hydroxy-4-(N-isobutyl-2-(methylamino)-benzo[d]oxazole-6-carboxamido)-1-phenylbutan-2-ylcarbamate] were more than 100 µM and 49%.
`CCN(C)c1nc2ccc(C(=O)N(C[C@@H](O)[C@H](Cc3ccccc3)NC(=O)OCc3cncs3)CC(C)(C)O)cc2o1` [Compound C34, Thiazol-5-ylmethyl (2S,3R)-4-(2-(ethyl(methyl)amino)-N-(2-hydroxy-2-methylpropyl)benzo[d]oxazole-6-carboxamido)-3-hydroxy-1-phenylbutan-2-ylcarbamate]: in data set [1], the CC50 is more than 100 µM.
Molecule `CC(C)CN(C[C@@H](O)[C@H](Cc1ccccc1)NC(=O)OCc1cncs1)C(=O)c1ccc2nc(-c3ccccc3)oc2c1` [Compound C41, Thiazol-5-ylmethyl (2S,3R)-3-hydroxy-4-(N-isobutyl-2-phenylbenzo[d]-oxazole-6-carboxamido)-1-phenylbutan-2-ylcarbamate] came in with a CC50 in data set [1] of 13.8 µM. For the same molecule, the recovery in data set [2] was 64%.
On to `C#CCN(C[C@@H](O)[C@H](Cc1ccccc1)NC(=O)OCc1cncs1)C(=O)c1ccc2nc(N3CCCC3)oc2c1` [Compound C33, Thiazol-5-ylmethyl (2S,3R)-3-hydroxy-1-phenyl-4-(N-(prop-2-ynyl)-2-(pyrrolidin-1-yl)benzo[d]oxazole-6-carboxamido)butan-2-ylcarbamate], for which the CC50 in data set [1] came to 61.7 µM. This lies in the double-digit micromolar range.
As to `CCN(C)c1nc2ccc(C(=O)N(C)C[C@@H](O)[C@H](Cc3ccccc3)NC(=O)OCc3cncs3)cc2o1` [Compound C19, Thiazol-5-ylmethyl (2S,3R)-4-(2-(ethyl(methyl)amino)-N-methylbenzo[d]-oxazole-6-carboxamido)-3-hydroxy-1-phenylbutan-2-ylcarbamate], the 50% cytotoxic concentration (CC50) in data set [1] was more than 100 µM. For the same molecule, the recovery in data set [2] amounted to 55%.

For the origin of these results see patent US8350048B2, “Amide compounds as boosters of antivirals” (Janssen R&D Ireland, priority 2007, dated 2013).
